In article PMC12136788 one finds binding signal data, which are given here for six molecules.

The labels stand for the following.
T1: UNK ZnF1-3 (human, UniProt Q9C0B0 31-174)
T1 sequence: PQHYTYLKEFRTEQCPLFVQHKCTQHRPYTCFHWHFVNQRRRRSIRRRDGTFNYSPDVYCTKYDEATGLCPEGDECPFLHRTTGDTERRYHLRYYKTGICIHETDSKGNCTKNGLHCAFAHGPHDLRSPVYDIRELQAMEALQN

B1: chr8:74858975:74858976:-_ENSG00000154582_ENST00000284811|hu_mus|hu_hu_hu_mus_True|88_108 (ssRNA)
RNA: GGGAGUUCUACAGUCCGACGAUCGACCUUGUACGUAAAAUACAUGCAUACUUUCGAUAGCACAUGUGAGGGGAUCUCUCUAAAAUUGACCUCGUUGGUUUCAUUCUCAGCAAACUGACCUGGACCACUCAACAUAGCCUUUAUCAACAGAGGAUUGAGCAUCA
B2: chr1:225611761:225611762:-_ENSG00000143815_ENST00000272163|hu_mus|hu_hu_hu_mus_True|1_28 (ssRNA)
RNA: GGGAGUUCUACAGUCCGACGAUCCCAGGCCAUCGGCCUCUGACCACUUCACCCUCAACAAACUUCCUACUUGGCAUUUUCUAAAAUUAGUCUGGCCGCGCUCCGGCCGGUGACACGGCCACUCCAGGACAGUCACCCGCACAGCAACAGAGGAUUGAGCAUCA
B3: chr1:163112212:163112213:-_ENSG00000143248_ENST00000313961|hu_hu|hu_hu_hu_mus_False|48_88 (ssRNA)
RNA: GGGAGUUCUACAGUCCGACGAUCUUUUAUUAUCAGUAAGAGUGAGUCACAUAGUACGCAAAGUAUUGGAUACAAUAAUCAGGAAACAAACACAAUUGGUCCAGAAUUUAAAACUUUAUGAGCGAAGUGCUGGCACAGGACUUACAACAGAGGAUUGAGCAUCA
B4: chr4:76721835:76721836:+_ENSG00000138768_ENST00000264904|hu_mus|hu_hu_hu_mus_True|18_88 (ssRNA)
RNA: GGGAGUUCUACAGUCCGACGAUCGUUUGGCUGGGGUUUCUGAGACGUCUGGAAUACUAACUCAUGUUUGCUAAUAAAUCCUAGUUUCUCUAUGAAAUUCUCUUUGCCAAUCCUCUUUCAAUCAGUUUGCUUUAGUUUCUCUUUCAACAGAGGAUUGAGCAUCA
B5: chrX:119742084:119742085:+_ENSG00000232119_ENST00000371317|hu_mus|motif|central (ssRNA)
RNA: GGGAGUUCUACAGUCCGACGAUCAAAAGGAUAUUUAUGAAGUAAUCUUAAAGUUGGAUAAAAAGGCCCUUCUCUUUGUCGGAAAAACAGUAAUUCUCCAUUUACUGUAAGGAUUUCUAUGUGUUCAUGGCAUCGGACAAUUUUCAACAGAGGAUUGAGCAUCA
B6: chr12:53620312:53620313:+_ENSMUSG00000035133_ENSMUST00000110725|mus_mus|FALSE|FALSE (ssRNA)
RNA: GGGAGUUCUACAGUCCGACGAUCAGGUUUAAUAGGUGGAGGCACUUUAUGGUUACGUUCAUGAUCGUGACAAUUUGGAGUGCUAUGAACAGGAUACUCAUUUCCUUCCAAAUCUAACCUGUAUCUGGAACGGUCACUAGGUGUCAACAGAGGAUUGAGCAUCA

This is one part of the list.

The assay addresses T1, UNK ZnF1-3. In words: nsRBNS (natural sequence RNA bind-n-seq); RBNS binding buffer (assumed for nsRBNS): 25 mM Tris pH 7.5, 150 mM KCl, 3 mM MgCl2, 0.01% Triton X-100, 500 ug/ml BSA, 20 U/ml SUPERase-In, 4 C; UNK is unkempt and MSI1 is Musashi-1; names of the RNAs are library labels; protein concentration not given here; high values mean tight binding.
As to B1, the binding signal amounted to 0.818 enrichment R.

Molecule B2 showed a binding signal of 1.17 enrichment R. Regarding B3, the binding signal is 1.64 enrichment R. B4 yielded a binding signal of 0.381 enrichment R. Under B5 stands 0.594 enrichment R; under B6, 0.679 enrichment R.
